# Laboratory results taken from the supplement of paper PMC3724861.
# The list shows a part of the results.
# Tested on: T1, Caupolican (Caup) homeodomain DNA-binding domain
# T1 sequence: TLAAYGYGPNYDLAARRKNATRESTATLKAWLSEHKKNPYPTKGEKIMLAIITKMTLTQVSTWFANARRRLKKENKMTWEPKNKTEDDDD
# Assay: PBM E-score (8-mer, recovered from the published 9-mer minima) (E-score (dimensionless, -0.5 to 0.5)); Drosophila protein; higher = stronger relative binding preference, active = 0.31 or more
# Summary of the method: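 An enrichment score, with higher meaning stronger, expresses relative binding preference for each short DNA word. The protein used was Caup's homeodomain DNA-binding domain (residues 214-303), produced by in vitro transcription and translation and tested at 100 nM on custom-designed protein binding microarrays. The 8-mer values were recovered from published 9-mer scores, each equal to the lower of its two constituent 8-mer scores.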
row,Sequence,PBM E-score
1,AGGCAGCG,inactive: -0.143
2,CTGACCTC,inactive: -0.0972
3,AGTAGTTG,inactive: 0.0486
4,GTGAAAGA,inactive: -0.0128
5,TACCGCGA,≥ -0.00355
6,AAATCGTG,inactive: 0.108
7,AAAAAACG,inactive: 0.0324
8,CAGATTCC,inactive: -0.0442
9,CCGTTAGC,inactive: -0.0957
10,CGCTAATC,inactive: -0.0282
11,AAGCAACT,inactive: 0.0512
12,CTATCGCC,inactive: -0.063
13,CGGTGATA,inactive: 0.145
14,AACCTCCC,inactive: -0.0854
15,GGAATTTA,inactive: 0.0587
16,GCGGATGA,inactive: -0.0607
17,CTGATGAC,inactive: 0.0472
18,ACCAATCT,inactive: 0.0871
19,GTGGATCA,inactive: -0.0757
20,ACACCTCC,inactive: 0.0827
21,AGGCGTTG,inactive: -0.0379
22,CATGAGAG,inactive: -0.0256
23,ACCCTCGC,inactive: -0.266
24,ATACAATA,inactive: 0.26
25,CGTGCCCA,inactive: -0.113

row,Sequence,PBM E-score
1,TACGGAAA,inactive: 0.00457
2,AACATCAG,inactive: 0.231
3,CACGGCAA,inactive: 0.0903
4,CACAGGGC,inactive: -0.153
5,AAAGCCAT,≥ 0.0303
6,CGCATTCC,inactive: -0.165
7,ATCTCAGC,inactive: -0.0577
8,TACCGACA,inactive: 0.182
9,AAATGGTC,inactive: 0.0567
10,GACTACAC,active: 0.33
11,ATCGTTTG,inactive: 0.0493
12,AATGATAG,inactive: 0.11
13,GCCAAAGC,inactive: -0.255
14,ACCCTAAC,inactive: -0.0282
15,GTGAGTGA,inactive: -0.0384
16,ACTAAGCG,inactive: -0.0861
17,ATCGCAGA,≥ 0.0242
18,ACCTAAAT,inactive: -0.00381
19,CACGGATC,inactive: 0.00878
20,GCACCTGC,inactive: -0.269
21,ATAGTGTG,inactive: 0.0943
22,GAACCAGC,inactive: 0.032
23,CTAACTTA,inactive: 0.104
24,CTGTTAGA,inactive: 0.105
25,CTTCCTAC,inactive: -0.123

row,Sequence,PBM E-score
1,GGATAGCA,inactive: -0.0195
2,GGTCAGGA,inactive: -0.164
3,GGGTCTAC,inactive: -0.106
4,CTTCAGTA,inactive: -0.00156
5,CTGCAGCA,inactive: -0.0336
6,CGCCGCCC,inactive: -0.327
7,CAGGCAAG,inactive: 0.00925
8,ATCTGCGC,inactive: -0.0684
9,ACGCGCTA,inactive: -0.00798
10,GCATGCAA,inactive: 0.0861
11,TAAAACCA,≥ 0.102
12,CCAGGTCG,inactive: -0.0728
13,AAACACTG,inactive: 0.123
14,AACGGTCT,inactive: -0.0251
15,TGGTGAAA,inactive: 0.0422
16,GGACGCCC,inactive: -0.286
17,CAGGTCAA,inactive: -0.0852
18,GAGGAAAA,inactive: -0.0811
19,CGATCATA,inactive: 0.0822
20,AAGGTAGG,inactive: -0.0549
21,ATTCTAGA,inactive: 0.0185
22,ACGTCGTA,inactive: 0.128
23,CCGGTGGA,inactive: -0.155
24,AGTGATTG,inactive: 0.107
25,ACGAGTGG,inactive: -0.0696

row,Sequence,PBM E-score
1,TGGCCCAA,inactive: -0.2
2,CCACGGCG,inactive: -0.151
3,CTGTCGAC,inactive: 0.0515
4,GTTAATAA,inactive: 0.156
5,GCAAGACA,inactive: 0.0548
6,GGGCAGCA,inactive: -0.167
7,CCGACCAA,inactive: -0.0268
8,AGGCTCGA,inactive: -0.0902
9,CCACTCTC,inactive: -0.148
10,ACAGTCGC,inactive: -0.0513
11,ACGACACT,inactive: 0.122
12,AGCCCATC,inactive: -0.179
13,AGGGCCAA,inactive: -0.235
14,GAGTGGAA,inactive: -0.00388
15,CCGTCACG,inactive: -0.12
16,ACGTCAGC,inactive: 0.0443
17,GCTATGAC,inactive: 0.0289
18,AGCCAATC,inactive: -0.081
19,GAAGGCAA,inactive: -0.113
20,AAGATATG,inactive: 0.182
21,CCAAAGGC,inactive: -0.126
22,ACCTAGCA,inactive: 0.0379
23,TCCGAGCA,≥ -0.0223
24,ACAGACGA,inactive: 0.126
25,AATGCGAT,inactive: 0.0847

row,Sequence,PBM E-score
1,AATCCAGG,inactive: -0.0254
2,CGTAGTAA,inactive: 0.145
3,CCGCAAAG,inactive: -0.0876
4,GCCCGATA,inactive: -0.0865
5,CACGTGAG,inactive: 0.0576
6,ACGTCTCA,inactive: 0.0185
7,GCACATAC,inactive: 0.00947
8,ACGGTTTC,inactive: -0.0218
9,GATAGTTA,inactive: 0.113
10,AATTCGAA,inactive: 0.104
11,CTGGTCGA,inactive: -0.0873
12,AGGAGCAA,inactive: -0.141
13,AGTATGCC,inactive: -0.0118
14,CATGGATC,inactive: -0.0478
15,CTAGCTCA,inactive: -0.0432
16,AGAATTCC,inactive: -0.0348
17,GACCTTGA,inactive: -0.0409
18,AGACGTTA,inactive: 0.0584
19,AAACATCA,inactive: 0.279
20,AGGTAGGG,inactive: -0.0801
21,ACTTCGAG,inactive: -0.0774
22,ATCGGCTC,inactive: -0.0107
23,ACACTTGG,inactive: 0.0202
24,GGTGCCAA,inactive: -0.0596
25,AAGTTCGG,inactive: -0.0146

row,Sequence,PBM E-score
1,CTGGACCA,inactive: 0.0005
2,AAGAGATG,inactive: 0.104
3,CACTATTC,inactive: 0.0377
4,CATGCACG,inactive: 0.126
5,AAGGATGA,inactive: -0.0152
6,ACGTTGAA,inactive: -0.0507
7,ATGCAACC,inactive: 0.0215
8,GCTACAAA,inactive: 0.0968
9,TGTCAGAA,inactive: 0.196
10,ACACAATC,inactive: 0.213
11,ATCGACCA,≥ 0.00221
12,CGAGAATC,inactive: 0.0473
13,AAGCCCGA,≥ -0.0775
14,AATAAGAC,inactive: 0.191
15,CGTCTAGC,inactive: -0.0601
16,CCCGCCTA,inactive: -0.0953
17,GGATTAAC,inactive: 0.0552
18,CCCCACGC,inactive: -0.311
19,ATGAGCCA,≥ -0.00819
20,CGCCGCTC,inactive: -0.266
21,ATGATATC,inactive: 0.137
22,CAGACGGG,inactive: -0.128
23,AAATCCCG,inactive: -0.0314
24,AGGATTGC,inactive: -0.0996
25,TGATTGCA,inactive: 0.139

row,Sequence,PBM E-score
1,ACCCGCAC,inactive: -0.157
2,CAGGGATC,inactive: -0.124
3,AGGACTCG,≥ -0.00964
4,GACAAATA,inactive: 0.218
5,CGCTATAC,inactive: -0.00455
6,GCGTCAGC,inactive: -0.13
7,GCTTGCCC,inactive: -0.272
8,CAGTACGG,inactive: -0.068
9,ATGTTTTG,inactive: 0.289
10,AGGCTACC,inactive: -0.102
11,CAAACGTA,≥ 0.162
12,ACTGACCT,inactive: 0.0333
13,CTCTATCA,inactive: -0.0234
14,GGAAAACA,inactive: 0.239
15,GATTGGGC,inactive: -0.0969
16,GTACCGTA,inactive: 0.0122
17,CGATAAAC,inactive: -0.00292
18,GTCTCAGA,inactive: -0.079
19,CCAACGAC,inactive: -0.0205
20,ACCAGACC,inactive: 0.0148
21,ATAACGAC,inactive: 0.0916
22,GGGGAATA,inactive: -0.0595
23,TAAAACAA,inactive: 0.232
24,GATTAATA,inactive: 0.181
25,GATTAGTA,inactive: 0.205

row,Sequence,PBM E-score
1,CGACTCGC,inactive: -0.164
2,GTATGTTA,active: 0.321
3,AAGATATT,inactive: 0.0347
4,AGAATCCA,inactive: 0.0103
5,ACCTCCGG,inactive: -0.116
6,GAGAATTA,inactive: 0.0377
7,CTCTCCAG,inactive: -0.195
8,GACCGCTC,inactive: -0.194
9,ACGGTGTC,inactive: 0.0383
10,ACAGCGGC,inactive: -0.0913
11,CGATCTGA,inactive: -0.0153
12,AGCTCCCC,inactive: -0.236
13,ACGCTTCA,inactive: -0.0361
14,ATCTTCAC,inactive: 0.0337
15,GATTCAGA,inactive: 0.0563
16,CCCTACAG,inactive: -0.132
17,AAACCCGT,inactive: -0.0681
18,CCGGCTTA,inactive: -0.155
19,CCCGGTTC,inactive: -0.19
20,CACGTTCA,inactive: 0.0688
21,CATCTATC,inactive: 0.0165
22,AGTAGGTG,inactive: 0.124
23,TCGGGACA,inactive: 0.0786
24,GACCCTGA,inactive: -0.13
25,AAACCGCA,inactive: -0.137

row,Sequence,PBM E-score
1,TGCAGAAA,inactive: 0.0408
2,GCGCGATA,inactive: -0.0764
3,AGGACAAA,inactive: 0.139
4,CGGAACGA,≥ 0.0391
5,GTCTAACA,inactive: 0.2
6,AGTTGTCC,inactive: 0.235
7,GTCTACGA,inactive: 0.0298
8,ATTGAGTC,inactive: 0.088
9,AAATTGCA,inactive: 0.128
10,AAGTTAAC,inactive: 0.211
11,ACTATCTC,inactive: 0.0489
12,CGTATGTC,inactive: 0.145
13,CAACTCTC,inactive: -0.0186
14,CCAATCCC,inactive: -0.0731
15,ACCAGTCA,inactive: 0.0961
16,ATAAATTA,inactive: 0.171
17,CACCATAC,inactive: -0.00193
18,GTTGACGA,inactive: 0.0666
19,GTTTACTA,≥ 0.235
20,GGCGTTTA,inactive: -0.0266
21,TACACCCA,inactive: 0.147
22,CAAATTTG,inactive: 0.0135
23,GTTTCTAA,inactive: 0.0726
24,CAGTGCAA,inactive: 0.0499
